Laboratory results as given in PubChem BioAssay AID2101 (National Center for Advancing Translational Sciences (NCATS), 2009).
The campaign covered roughly 330,000 compounds. About 300 (0.091%) were called active. The shares of active, inactive and inconclusive entries below differ from those in the screen. The call rests on the fitted dose curve; in most records, active means well fitted inhibition curve with a large enough effect; inconclusive means small, poorly fitted or top-dose-only effect, or effect the other way, or another doubt; inactive means no such curve, though single readings can be large or run the other way. No potency is given beside an inconclusive call; the fits are too rough.

target: Lysosomal acid glucosylceramidase (Homo sapiens) (UniProt P04062); experiment: qHTS Assay for Inhibitors and Activators of N370S glucocerebrosidase as a Potential Chaperone Treatment of Gaucher Disease; conditions: N370S GC spleen homogenate, 4MU-glucoside fluorescence; activity change, negative = inhibition: at 59.4 µM (top of the series) unless noted;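 on activity change, negative = inhibition: 0% = full enzyme activity and -100% = no enzyme basal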
Potency means the concentration at half of the fitted maximal effect.

SMILES | Potency | activity change, negative = inhibition
CC(CC(=O)NCc1ccc(Cl)cc1)S(=O)(=O)c1ccc2c(c1)NC(=O)CO2 (configuration not stated) | inconclusive [inhibitor, full curve, poor fit] | 
COC(=O)CCc1ccccc1S(=O)(=O)N(CCC(=O)OC)Cc1ccccc1 |  | inactive: 4.9%
CCOC(=O)c1cnc2ccc(C)cn2c1=O | inconclusive [activator, partial curve] | 
NC(=O)C1CCN(CC(=O)Nc2cccc(C(=O)Nc3cccc(C(F)(F)F)c3)c2)CC1 | inconclusive [inhibitor, partial curve] | 
Cc1ccc2nc(-c3ccccc3)cc(C(=O)N3CCN(c4ccccc4O)CC3)c2c1 | inconclusive [inhibitor, full curve, poor fit] | 
O=S(=O)(c1ccccc1)N1CCN(c2nc(-c3cccnc3)nc3ccccc23)CC1 | inconclusive [inhibitor, full curve, poor fit] | 
O=c1[nH]c(C2C3CC4CC(C3)CC2C4)nc2ccccc12 (configuration not stated) | inconclusive [activator, full curve] | 
CC1(C)CC(=O)c2cnc(N3CCN(c4ccccc4)CC3)nc2C1 |  | inactive: 0.887%
CCOC(=O)N1N=C(C)CC1(O)c1ccccc1 (configuration not stated) |  | inconclusive: 26.6% [activator]
CC(C)CCNC(=O)CNC(=S)N(Cc1ccccc1)Cc1cccnc1 | inconclusive [inhibitor, single point] | 
CN(CCOc1ccc(Cl)c(Cl)c1)Cc1ccccc1 | inconclusive [inhibitor, single point] | 
C[C@H](CO)NC(=O)[C@H](C)[C@H]1C[C@]1(C)[C@H](NC(=O)OCc1ccccc1)c1ccccc1 | inconclusive [inhibitor, single point] | 
CC1(C)CN(c2ccccc2)N(C(=O)c2ccc(C#N)cc2)C1=O |  | inactive: 11.5%
CCN(CC)S(=O)(=O)c1ccc(N2CCOCC2)c(NC(=O)Cc2ccc(Cl)cc2)c1 | inconclusive [activator, full curve] | 
Cc1ccc(-n2nc(C)c3c(C)c(CCC(=O)Nc4ccc(CN5CCCC5)cc4)c(C)nc32)cc1 | inconclusive [inhibitor, partial curve] | 
O=C(NCc1ccco1)c1nn2c(C(F)(F)F)cc(-c3cccs3)nc2c1Br | inconclusive [activator, partial curve, poor fit] | 
CC(C)CNC(=O)COc1ccccc1[N+](=O)[O-] | inconclusive [activator, partial curve, poor fit] | 
Cc1cc2[nH]c(=O)c(=O)[nH]c2cc1S(=O)(=O)Nc1ccccc1F | inconclusive [inhibitor, partial curve] | 
COc1cc(CCC(=O)OCC(=O)Nc2ccc(F)cc2F)cc(OC)c1OC | inconclusive [inhibitor, single point] | 
CC(C)c1ccc(OCC(=O)N(Cc2ccccc2)c2ccccn2)cc1 | inconclusive [activator, partial curve] | 
COc1cccc(N(C(=O)Cn2nnc3ccccc32)C(C(=O)NCc2ccco2)c2cccnc2)c1 (configuration not stated) | inconclusive [inhibitor, partial curve, poor fit] | 

SMILES | Potency | activity change, negative = inhibition
CCOC(=O)N1CCC(=NNC(=O)c2cc3ccccc3cc2O)CC1 | inconclusive [inhibitor, single point] | 
Cc1ccc(Cl)c2c1=NC(=O)C=2c1[nH]c(=S)[nH]c1O | inconclusive [activator, partial curve, poor fit] | 
CC1(C)CC(=O)C(Sc2ccccc2[N+](=O)[O-])=C(O)C1 | inconclusive [inhibitor, single point] | 
c1ccc(-c2ccc(N3CCCC4(CCNCC4)C3)cc2)cc1 | active: 15.8 µM | 
Cc1ccc(S(=O)(=O)N(c2ccc(Br)cc2)C2C=CS(=O)(=O)C2)cc1 (configuration not stated) | inconclusive [inhibitor, single point] | 
Cc1ccc(-c2cc(C(=O)N(C)CC(=O)Nc3ccccc3Br)c3ccccc3n2)o1 | inconclusive [activator, partial curve] | 
CCCCn1c(SCC(=O)OCC)nnc1-c1ccoc1C | inconclusive [inhibitor, partial curve] | 
COCCCN(Cc1cccs1)S(=O)(=O)c1csc(C(N)=O)c1 | inconclusive [inhibitor, single point] | 
Cc1ccc(NC(=O)COC(=O)C2CCN(c3ccc(C(F)(F)F)cn3)CC2)cc1C | inconclusive [activator, single point] | 
c1coc(CNc2ncnc3c2oc2ccccc23)c1 |  | inactive: 12.2%
O=C(N/N=C/C(Br)=C/c1ccccc1)NC1CCCCC1 |  | inactive: 2.05%
CN1c2ccccc2C(C)(C)C12C=Nc1c(ccc3ccccc13)O2 (configuration not stated) |  | inactive: 2.46%
N#C/C(=C\c1ccccc1[N+](=O)[O-])C(=O)NCc1ccccc1 |  | inactive: 0.901%
CC1CCCCC1NC(=O)/C(C#N)=C/c1ccc2c(c1)OCCO2 (configuration not stated) | inconclusive [inhibitor, partial curve, poor fit] | 
CCNC(=S)N(CCc1ccccc1C)Cc1cc2cc(OC)c(OC)cc2[nH]c1=O |  | inactive: 28.5%
CCOC(=O)c1c(NC(=O)CSC(=S)N(C)C)sc(C)c1C | inconclusive [activator, partial curve] | 
CC(=O)N=c1sc2nc3ccccc3nc2n1N(C(C)=O)C(C)=O |  | inactive: -9.98%
CC1Sc2ccc(S(=O)(=O)CCC(=O)NC3CCCCC3C)cc2NC1=O (configuration not stated) | inconclusive [inhibitor, partial curve, poor fit] | 
Cc1nc2cc(N)ccc2n1C1CCCCC1 | inconclusive [inhibitor, full curve] | 
COc1ccccc1NS(=O)(=O)c1ccc(C)c(NC(=O)c2ccc(S(=O)(=O)N3CCCCCC3)cc2)c1 |  | inconclusive: 37.3% [activator]
COc1cc(OC)c(-c2nn3c(C4CCCCC4)nnc3s2)cc1OC | inconclusive [activator, single point] | 
